The supplement of paper PMC4604168 (melanoma cell lines)
Some of the results follow. Single values are uncertain, as repeats are few or missing.

Legend:
Experiment in all cases: cell count relative to DMSO control; melanoma cells; higher = more viable cells
Conditions in all cases: library dose: standard library concentration; 72 h
[1] = system: G361
[2] = system: IPC-298
[3] = system: IST-MEL1
[4] = system: LB2518-MEL
[5] = system: LOXIMVI
[6] = system: MEL-HO
[7] = system: MZ2-MEL
[8] = system: MeWo
[9] = system: RPMI7951
[10] = system: RVH-421
[11] = system: SkMel28
[12] = system: SkMel2
[13] = system: SkMel30
[14] = system: SkMel5
[15] = system: UACC257
[16] = system: UACC62
[17] = system: WM115
[18] = system: WM1716
[19] = system: WM1745
[20] = system: WM3526
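Note: cells treated in 1,536-well plates, then fixed and DAPI-stained, with nuclei counted from automated high-throughput microscope images.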

SMILES	cell count [1]	cell count [2]	cell count [3]	cell count [4]	cell count [5]	cell count [6]	cell count [7]	cell count [8]	cell count [9]	cell count [10]	cell count [11]	cell count [12]	cell count [13]	cell count [14]	cell count [15]	cell count [16]	cell count [17]	cell count [18]	cell count [19]	cell count [20]
Nc1ccn([C@@H]2O[C@H](CO)[C@@H](O)C2(F)F)c(=O)n1 [gemcitabine] + COCC[n+]1c2c(n(Cc3cnccn3)c1C)C(=O)c1ccccc1C2=O [YM155] (first compound 0.002 µM, partner dose 0.002 µM)	30.6%	28.8%	33.6%	26.7%	14.1%	54.8%	27.5%	27.6%	40.4%	42%	38.2%	56.9%	83.4%	48.7%	30.6%	66.3%	44.8%	47.5%	49.5%	49.4%
CO[C@H]1C[C@@H]2CC[C@@H](C)[C@@](O)(O2)C(=O)C(=O)N2CCCC[C@H]2C(=O)O[C@H]([C@H](C)C[C@@H]2CC[C@@H](OCCO)[C@H](OC)C2)CC(=O)[C@H](C)/C=C(\C)[C@@H](O)[C@@H](OC)C(=O)[C@H](C)C[C@H](C)/C=C/C=C/C=C/1C [everolimus] + Clc1ccc(Nc2nnc(Cc3ccncc3)c3ccccc23)cc1 [vatalanib] (first compound 0.1 µM, partner dose 10 µM)	62.3%	58.9%	68.3%	66.5%	38.1%	38.7%	56.1%	43.8%	59.9%	80.4%	62.2%	57.1%	63.4%	46.8%	68.8%	70.6%	68%	74.6%	73%	55.2%
CC(=O)O[C@@]12CO[C@@H]1C[C@H](O)[C@@]1(C)C(=O)[C@H](O)C3=C(C)[C@@H](OC(=O)[C@H](O)[C@@H](NC(=O)OC(C)(C)C)c4ccccc4)C[C@@](O)([C@@H](OC(=O)c4ccccc4)[C@H]21)C3(C)C [Docetaxel] + Cn1c(=O)n(-c2ccc(C(C)(C)C#N)cc2)c2c3cc(-c4cnc5ccccc5c4)ccc3ncc21 [NVP-BEZ235] (first compound 0.0005 µM, partner dose 0.02 µM)	13.1%	41.7%	48.5%	51.6%	66.5%	50.8%	45.9%	28.1%	34.7%	77.8%	10.1%	17.6%	49.3%	34.8%	56.4%	59.3%	32.8%	32.7%	36.3%	41.4%
Nc1ccn([C@@H]2O[C@H](CO)[C@@H](O)C2(F)F)c(=O)n1 [gemcitabine] + CN(C)S(=O)(=O)c1ccc2c(c1)/C(=C/c1cc3c([nH]1)CCCC3)C(=O)N2 [SU6656] (first compound 0.002 µM, partner dose 2 µM)	48%	55.2%	41.4%	62%	85.4%	62.4%	61%	46.7%	49.1%	50.8%	83.4%	71.4%	83.7%	74.5%	80.7%	58.9%	40.8%	61.4%	40.8%	78%
CO[C@H]1C[C@@H]2CC[C@@H](C)[C@@](O)(O2)C(=O)C(=O)N2CCCC[C@H]2C(=O)O[C@H]([C@H](C)C[C@@H]2CC[C@@H](OCCO)[C@H](OC)C2)CC(=O)[C@H](C)/C=C(\C)[C@@H](O)[C@@H](OC)C(=O)[C@H](C)C[C@H](C)/C=C/C=C/C=C/1C [everolimus] + C=C(c1ccc(C(=O)O)cc1)c1cc2c(cc1C)C(C)(C)CCC2(C)C [Bexarotene] (first compound 0.1 µM, partner dose 10 µM)	48.3%	58.6%	66.9%	79.7%	69%	56.7%	82.8%	68.1%	87.1%	91.9%	41.6%	49.5%	50.5%	53.7%	82.3%	55.7%	76.2%	63%	99.7%	59.1%
Nc1ncn([C@H]2C[C@H](O)[C@@H](CO)O2)c(=O)n1 [decitabine] + COc1ccc(Cl)c(Nc2nc3ccccc3nc2NS(=O)(=O)c2cccc(NC(=O)C(C)(C)N)c2)c1 [XL147] (first compound 0.5 µM, partner dose 4 µM)	72.3%	59.9%	62.1%	93.1%	105%	70.5%	70.2%	75.4%	127%	102%	87.4%	95.4%	87.1%	68.9%	84.3%	82.9%	104%	81.6%	86.2%	82.7%
Nc1ncn([C@H]2C[C@H](O)[C@@H](CO)O2)c(=O)n1 [decitabine] + Cn1c(Nc2ccc(C(F)(F)F)cc2)nc2cc(Oc3ccnc(-c4ncc(C(F)(F)F)[nH]4)c3)ccc21 [CHIR265] (first compound 0.5 µM, partner dose 0.4 µM)	23%	38.6%	72.6%	36.2%	68.5%	55.5%	67.5%	63.2%	52.9%	57.8%	29.7%	59.1%	66.4%	38.5%	87.1%	50.1%	38.8%	57.6%	74.8%	38.8%
